# Certain results were filed several times, with different values. This list holds those alone. How the calls were made is not given here. There may be further records. Values that stand side by side are repeats (runs, samples, wells, individuals or studies). Brackets tell where a record comes from. Letters hold for one entry only.
# Tested on: CCRIS mutagenicity, Ames/micronucleus/aberration tests
# Assay: CCRIS mutagenicity studies
# Details: Test System: AMES SALMONELLA TYPHIMURIUM
# [1] = Strain/Indicator: TA98, Metabolic Activation: NONE, Method: PREINCUBATION
smiles,measurement,setting,value
Oc1cc2c3ccccc3ccc2c2ccccc12,mutagenic call,"Strain/Indicator: TA100, Metabolic Activation: RAT, LIVER, S-9, AROCLOR 1254, Method: STANDARD PLATE","active; positive [study A, 0 to 50 µg/plate] and inactive; negative [study B, 0 to 50 µg/plate]"
O=C1c2cc(O)cc(O)c2C(=O)c2c(O)cc(CO)cc21,mutagenic call,"Strain/Indicator: TA1537, Metabolic Activation: NONE, Method: STANDARD PLATE","active; positive [study A, 2 to 50 µg/plate] and inactive; negative [study B, 10 to 100 µg/plate]"
Nc1ccc(N)c2ccccc12,mutagenic call,"Strain/Indicator: TA98, Metabolic Activation: HAMSTER, LIVER, S-9, AROCLOR 1254 (10%), Method: PREINCUBATION","inactive; negative [study A, 33 to 3333 µg/plate] and active; positive [study B, 3 to 33 µg/plate]"
same,mutagenic call,"Strain/Indicator: TA100, Metabolic Activation: HAMSTER, LIVER, S-9, AROCLOR 1254 (10%), Method: PREINCUBATION","inactive; negative [study A, 33 to 3333 µg/plate] and active; positive [study B, 3 to 66 µg/plate]"
same,mutagenic call,"Strain/Indicator: TA100, Metabolic Activation: NONE, Method: PREINCUBATION","inactive; negative [study A, 0.33 to 33 µg/plate] and active; positive [study B, 3 to 11 µg/plate]"
O=C(Cl)c1ccccc1[N+](=O)[O-],mutagenic call,[1],"inactive; negative [study A, 0 to 1000 µg/plate] and active; positive [study B, 10 to 1000 µg/plate]"
CCCCC(CC)COCC1CO1 (stereo not given),mutagenic call,"Strain/Indicator: TA100, Metabolic Activation: RAT, LIVER, S-9, AROCLOR 1254 (10%), Method: PREINCUBATION",inactive; negative [study A] and active; positive [study B]
O=C(O)c1ccc([N+](=O)[O-])cc1[N+](=O)[O-],mutagenic call,[1],active; positive [study A] and inactive; negative [study B]
Nc1ccc2ccccc2c1,mutagenic call,"Strain/Indicator: TA1538, Metabolic Activation: RAT, LIVER, S-9, AROCLOR 1254, Method: STANDARD PLATE",inactive; negative [study A] and active; positive [study B]
CCN(CC)N=O,mutagenic call,"Strain/Indicator: TA100, Metabolic Activation: RAT, LIVER, S-9, Method: STANDARD PLATE",inactive; negative [study A] and active; positive [study B]

# Reference: PubChem BioAssay AID1259407 (Chemical Carcinogenesis Research Information System (CCRIS), 2018)
